# Data as given in the supplement of paper PMC8728848.
# The list shows a part of the results.
# B1: RegIIIbeta (Mus musculus), P35230 (protein)
# chain: MLPPTACSVMSWMLLSCLMLLSQVQGEDSLKNIPSARISCPKGSQAYGSYCYALFQIPQTWFDAELACQKRPGGHLVSVLNSAEASFLSSMVKRTGNSYQYTWIGLHDPTLGAEPNGGGWEWSNNDVMNYFNWERNPSTALDRAFCGSLSRASGFLKWRDMTCEVKLPYVCKFTG
# Assays:
# Experiment in all cases: glycan array binding signal (z-score within array); higher = stronger binding
# Conditions in all cases: glycan notation: IUPAC condensed, linker removed
# [1] = target: Man(a1-2)Man(a1-2)Man(a1-6)[Man(a1-3)]Man
# Outline: (§1)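 Glycan array data were curated from 3228 arrays in the Consortium for Functional Glycomics database and kept only where the protein sequence was available. Glycan names were converted to IUPAC-condensed notation, and columns mapping to the same glycan were averaged. The binding signal is a within-array Z-score, averaged across arrays of the same protein sequence at different concentrations or buffers and across linkers. Negative Z-scores can be read as non-binding.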
# Man(a1-2)Man(a1-3)Man = target: Man(a1-2)Man(a1-3)Man
# Outline: as §1
# [2] = target: Man(a1-2)Man(a1-3)[Man(a1-2)Man(a1-6)]Man
# Outline: as §1
# [3] = target: Man(a1-2)Man(a1-3)[Man(a1-2)Man(a1-6)]Man(a1-6)[Man(a1-2)Man(a1-2)Man(a1-3)]Man(b1-4)GlcNAc(b1-4)GlcNAc
# Outline: as §1
# [4] = target: Man(a1-2)Man(a1-3)[Man(a1-2)Man(a1-6)]Man(a1-6)[Man(a1-3)[Man(a1-6)]Man(a1-6)]Man(b1-4)GlcNAc(b1-4)GlcNAc
# Outline: as §1
# [5] = target: Man(a1-2)Man(a1-3)[Man(a1-6)]Man(a1-6)[Man(a1-2)Man(a1-3)]Man(b1-4)GlcNAc(b1-4)GlcNAc
# Outline: as §1
# [6] = target: Man(a1-2)Man(a1-6)[Man(a1-3)]Man(a1-6)[Man(a1-2)Man(a1-2)Man(a1-3)]Man(b1-4)GlcNAc(b1-4)GlcNAc
# Outline: as §1
# Man(a1-3)[Man(a1-6)]Man = target: Man(a1-3)[Man(a1-6)]Man
# Outline: as §1
# [7] = target: Man(a1-3)[Man(a1-6)]Man(a1-6)[Man(a1-3)]Man(b1-4)GlcNAc(b1-4)GlcNAc
# Outline: as §1
# Neu5Ac(a2-3)Gal = target: Neu5Ac(a2-3)Gal
# Outline: as §1
# [8] = target: Neu5Ac(a2-3)Gal(b1-3)GalNAc
# Outline: as §1
# [9] = target: Neu5Ac(a2-3)Gal(b1-3)GalNAc6S
# Outline: as §1
# [10] = target: Neu5Ac(a2-3)Gal(b1-3)GlcNAc
# Outline: as §1
# [11] = target: Neu5Ac(a2-3)Gal(b1-3)[Fuc(a1-4)]GlcNAc
# Outline: as §1
# [12] = target: Neu5Ac(a2-3)Gal(b1-3)[Neu5Ac(a2-3)Gal(b1-4)]GlcNAc
# Outline: as §1
# [13] = target: Neu5Ac(a2-3)Gal(b1-3)[Neu5Ac(a2-6)]GalNAc
# Outline: as §1
# Neu5Ac(a2-3)Gal(b1-4)Glc = target: Neu5Ac(a2-3)Gal(b1-4)Glc
# Outline: as §1
# [14] = target: Neu5Ac(a2-3)Gal(b1-4)GlcNAc
# Outline: as §1
# [15] = target: Neu5Ac(a2-3)Gal(b1-4)GlcNAc(b1-3)Gal(b1-4)GlcNAc
# Outline: as §1
# [16] = target: Neu5Ac(a2-3)Gal(b1-4)GlcNAc(b1-3)Gal(b1-4)GlcNAc(b1-3)Gal(b1-4)GlcNAc
# Outline: as §1
# [17] = target: Neu5Ac(a2-3)Gal(b1-4)GlcNAc6S
# Outline: as §1
# [18] = target: Neu5Ac(a2-3)Gal(b1-4)[Fuc(a1-3)]GlcNAc
# Outline: as §1
# [19] = target: Neu5Ac(a2-3)Gal(b1-4)[Fuc(a1-3)]GlcNAc(b1-3)Gal
# Outline: as §1
# [20] = target: Neu5Ac(a2-3)Gal(b1-4)[Fuc(a1-3)]GlcNAc(b1-3)Gal(b1-4)GlcNAc
# Outline: as §1
# [21] = target: Neu5Ac(a2-3)Gal(b1-4)[Fuc(a1-3)]GlcNAc(b1-3)Gal(b1-4)[Fuc(a1-3)]GlcNAc(b1-3)Gal(b1-4)[Fuc(a1-3)]GlcNAc
# Outline: as §1
# [22] = target: Neu5Ac(a2-3)Gal(b1-4)[Fuc(a1-3)]GlcNAc6S
# Outline: as §1
# [23] = target: Neu5Ac(a2-3)Gal6S(b1-4)GlcNAc
# Outline: as §1
# Neu5Ac(a2-3)GalNAc = target: Neu5Ac(a2-3)GalNAc
# Outline: as §1
# [24] = target: Neu5Ac(a2-3)[GalNAc(b1-4)]Gal(b1-4)Glc
# Outline: as §1
# [25] = target: Neu5Ac(a2-3)[GalNAc(b1-4)]Gal(b1-4)GlcNAc
# Outline: as §1
# [26] = target: Neu5Ac(a2-3)[Neu5Ac(a2-6)]GalNAc
# Outline: as §1
# Neu5Ac(a2-6)Gal = target: Neu5Ac(a2-6)Gal
# Outline: as §1
# Neu5Ac(a2-6)Gal(b1-4)Glc = target: Neu5Ac(a2-6)Gal(b1-4)Glc
# Outline: as §1
# [27] = target: Neu5Ac(a2-6)Gal(b1-4)GlcNAc
# Outline: as §1
# [28] = target: Neu5Ac(a2-6)Gal(b1-4)GlcNAc(b1-3)Gal(b1-4)GlcNAc
# Outline: as §1
# [29] = target: Neu5Ac(a2-6)Gal(b1-4)GlcNAc(b1-3)Gal(b1-4)[Fuc(a1-3)]GlcNAc(b1-3)Gal(b1-4)[Fuc(a1-3)]GlcNAc
# Outline: as §1
# [30] = target: Neu5Ac(a2-6)Gal(b1-4)GlcNAc6S
# Outline: as §1
# Neu5Ac(a2-6)GalNAc = target: Neu5Ac(a2-6)GalNAc
# Outline: as §1
# Neu5Ac(a2-8)Neu5Ac = target: Neu5Ac(a2-8)Neu5Ac
# Outline: as §1
# [31] = target: Neu5Ac(a2-8)Neu5Ac(a2-3)Gal(b1-4)Glc
# Outline: as §1
# [32] = target: Neu5Ac(a2-8)Neu5Ac(a2-3)[GalNAc(b1-4)]Gal(b1-4)Glc
# Outline: as §1
# [33] = target: Neu5Ac(a2-8)Neu5Ac(a2-8)Neu5Ac
# Outline: as §1
# [34] = target: Neu5Ac(a2-8)Neu5Ac(a2-8)Neu5Ac(a2-3)Gal(b1-4)Glc
# Outline: as §1
# [35] = target: Neu5Ac(a2-8)Neu5Ac(a2-8)Neu5Ac(a2-3)[GalNAc(b1-4)]Gal(b1-4)Glc
# Outline: as §1
# Neu5Ac(b1-6)GalNAc = target: Neu5Ac(b1-6)GalNAc
# Outline: as §1
# [36] = target: Neu5Ac(b2-6)Gal(b1-4)GlcNAc
# Outline: as §1
# [37] = target: Neu5Ac9Ac(a2-6)Gal(b1-4)GlcNAc
# Outline: as §1
# [38] = target: Neu5Gc(a2-3)Gal(b1-3)GlcNAc
# Outline: as §1
# [39] = target: Neu5Gc(a2-3)Gal(b1-3)[Fuc(a1-4)]GlcNAc
# Outline: as §1
# Neu5Gc(a2-3)Gal(b1-4)Glc = target: Neu5Gc(a2-3)Gal(b1-4)Glc
# Outline: as §1
# [40] = target: Neu5Gc(a2-3)Gal(b1-4)GlcNAc
# Outline: as §1
# [41] = target: Neu5Gc(a2-3)Gal(b1-4)[Fuc(a1-3)]GlcNAc
# Outline: as §1
# [42] = target: Neu5Gc(a2-6)Gal(b1-4)GlcNAc
# Outline: as §1
# Neu5Gc(a2-6)GalNAc = target: Neu5Gc(a2-6)GalNAc
# Outline: as §1
binder,measurement,setting,value
B1,glycan array binding signal (z-score),[1],0.002
same,glycan array binding signal (z-score),Man(a1-2)Man(a1-3)Man,-0.056
same,glycan array binding signal (z-score),[2],-0.011
same,glycan array binding signal (z-score),[3],-0.045
same,glycan array binding signal (z-score),[4],-0.092
same,glycan array binding signal (z-score),[5],-0.058
same,glycan array binding signal (z-score),[6],-0.044
same,glycan array binding signal (z-score),Man(a1-3)[Man(a1-6)]Man,-0.112
same,glycan array binding signal (z-score),[7],-0.123
same,glycan array binding signal (z-score),Neu5Ac(a2-3)Gal,-0.124
same,glycan array binding signal (z-score),[8],-0.117
same,glycan array binding signal (z-score),[9],-0.107
same,glycan array binding signal (z-score),[10],-0.094
same,glycan array binding signal (z-score),[11],-0.103
same,glycan array binding signal (z-score),[12],-0.036
same,glycan array binding signal (z-score),[13],-0.116
same,glycan array binding signal (z-score),Neu5Ac(a2-3)Gal(b1-4)Glc,-0.115
same,glycan array binding signal (z-score),[14],-0.071
same,glycan array binding signal (z-score),[15],-0.115
same,glycan array binding signal (z-score),[16],-0.036
same,glycan array binding signal (z-score),[17],-0.109
same,glycan array binding signal (z-score),[18],-0.072
same,glycan array binding signal (z-score),[19],-0.108
same,glycan array binding signal (z-score),[20],-0.059
same,glycan array binding signal (z-score),[21],0.086
same,glycan array binding signal (z-score),[22],-0.079
same,glycan array binding signal (z-score),[23],-0.11
same,glycan array binding signal (z-score),Neu5Ac(a2-3)GalNAc,-0.12
same,glycan array binding signal (z-score),[24],-0.11
same,glycan array binding signal (z-score),[25],-0.087
same,glycan array binding signal (z-score),[26],-0.095
same,glycan array binding signal (z-score),Neu5Ac(a2-6)Gal,-0.12
same,glycan array binding signal (z-score),Neu5Ac(a2-6)Gal(b1-4)Glc,-0.083
same,glycan array binding signal (z-score),[27],-0.103
same,glycan array binding signal (z-score),[28],-0.092
same,glycan array binding signal (z-score),[29],-0.046
same,glycan array binding signal (z-score),[30],-0.079
same,glycan array binding signal (z-score),Neu5Ac(a2-6)GalNAc,-0.121
same,glycan array binding signal (z-score),Neu5Ac(a2-8)Neu5Ac,-0.115
same,glycan array binding signal (z-score),[31],-0.116
same,glycan array binding signal (z-score),[32],-0.11
same,glycan array binding signal (z-score),[33],-0.106
same,glycan array binding signal (z-score),[34],-0.118
same,glycan array binding signal (z-score),[35],-0.073
same,glycan array binding signal (z-score),Neu5Ac(b1-6)GalNAc,-0.119
same,glycan array binding signal (z-score),[36],-0.115
same,glycan array binding signal (z-score),[37],-0.117
same,glycan array binding signal (z-score),[38],-0.121
same,glycan array binding signal (z-score),[39],0.106
same,glycan array binding signal (z-score),Neu5Gc(a2-3)Gal(b1-4)Glc,-0.119
same,glycan array binding signal (z-score),[40],-0.116
same,glycan array binding signal (z-score),[41],-0.001
same,glycan array binding signal (z-score),[42],-0.122
same,glycan array binding signal (z-score),Neu5Gc(a2-6)GalNAc,-0.124
